Measured values published in PubChem BioAssay AID1345082 (National Center for Advancing Translational Sciences (NCATS), 2018).
Out of some 94,000 compounds screened, about 4,000 (4.3%) were called active. The shares of active, inactive and inconclusive entries below differ from those in the screen. Calls follow the shape of the dose curve; as a rule, active = well fitted inhibition curve with a large enough effect; inconclusive = small, poorly fitted or top-dose-only effect; inactive = no such curve, though single readings can be large or run the other way. Potencies of inconclusive entries are doubtful fits and often do not repeat.

Experiment: Cytotoxic Profiling in NIH 3T3 Cell Line of Diverse Libraries Using Quantitative High-Throughput Screening; also: nearly all actives have a fitted effect of over 55% in size
Conditions: NIH 3T3 viability, CellTiter-Glo ATP luminescence, 48-72 h; activity change, negative = cytotoxicity: at 96.7 µM (top of the series) unless noted; series mostly up to 96.7 µM
How it was run: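 Cytotoxicity is measured as loss of cellular ATP: NIH 3T3 cells (400/well) are exposed to compound for 48 or 72 hr at 37 °C, then CellTiter-Glo luminescence is imaged after 10 min at room temperature.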
% is scaled to controls: 0 for no effect and ±100 for the full control effect; potency is read from the fitted curve at half-maximal effect; tags tell the direction and shape of the fitted curve.

Row | SMILES | Potency | activity change, negative = cytotoxicity | outcome
1 | O=c1cc(-c2ccccn2)oc2c(Nc3cccnc3)nccc12 | active: 11.2 µM | – | –
2 | CN(C)c1cccc(C(=O)NCCC2CCN(C(=O)Nc3cc(F)cc(F)c3)CC2)c1 | – | inactive: -24.9% | –
3 | OCC1(CN2CCCC2)CCN(Cc2cccc3cc[nH]c23)CC1 | inconclusive: 44.7 µM [inhibitor, partial curve, poor fit] | – | –
4 | CO[C@H]1C(=O)N(C(C)C)[C@H]1C1CCN(C(=O)Cc2cccc(F)c2)CC1 | inconclusive: 79.4 µM [inhibitor, partial curve, poor fit] | – | –
5 | Cc1nc2cccnc2n1CC1CCCN(S(=O)(=O)c2ccc3c(c2)OCCO3)C1 (stereo not drawn) | inconclusive: 44.7 µM [inhibitor, partial curve, poor fit] | – | –
6 | O=C(c1cnc2n[nH]c(-c3ccccc3)c2n1)N1CCOCC1 | inconclusive: 100 µM [inhibitor, partial curve] | – | –
7 | O=C(NCCc1ccncc1)C1CN(C(=O)c2ccccc2)CC12CCOCC2 (stereo not drawn) | – | inactive: -6.17% | –
8 | Cc1ccc(C)c(-c2cc3c(=O)n(CCNC(=O)Cc4cccs4)ccn3n2)c1 | inconclusive: 50.1 µM [inhibitor, partial curve, poor fit] | – | –
9 | O=C(CC1COCCN1)N(CCc1c[nH]c2ccccc12)C1CCCCC1 (stereo not drawn) | inconclusive: 89.1 µM [inhibitor, single point] | – | –
10 | COc1ccc(Nc2ccnc(N3CCC(NC(=O)C4CCCC4)CC3)n2)cc1 | inconclusive: 44.7 µM [inhibitor, partial curve, poor fit] | – | –
11 | O=C(NCC1CCOCC1)C1COc2ccccc2O1 (stereo not drawn) | – | inactive: 0.377% | –
12 | Cc1cc(NC(=O)C2CCN(c3cc(C(F)(F)F)ncn3)CC2)ccc1Br | active: 31.6 µM | – | –
13 | CCNC(=O)OC1CN(CC(C)C)C(=O)CN(C(=O)c2cccs2)C1 (stereo not drawn) | inconclusive: 79.4 µM [inhibitor, partial curve, poor fit] | – | –
14 | COc1ccccc1OC1CN(C(=O)C(c2cccc(F)c2)N(C)C)C1 (stereo not drawn) | – | inactive: -12.8% | –
15 | CC(C)C[C@@H]1N[C@H](C(=O)NCc2ccccc2)Cc2cn(Cc3cccnc3)c3cccc1c23 | inconclusive: 50.1 µM [inhibitor, partial curve, poor fit] | – | –
16 | Cc1cccc(-n2nc(COc3ccccc3)nc2CN2CCOC2=O)n1 | inconclusive: 50.1 µM [inhibitor, partial curve, poor fit] | – | –
17 | O=C(c1ccc2c(c1)OCO2)N1CCCN(CCn2nc3n(c2=O)CCCC3)CC1 | – | inactive: -4.9% | –
18 | Cc1nn(C)c(C)c1CCC(=O)NC1CCc2nnc(C3CC3)n2CC1 (stereo not drawn) | – | inactive: -25.3% | –
19 | O=C(Cc1ccc(N(Cc2cccc(F)c2)C(=O)c2ccco2)cc1)NCc1ccco1 | inconclusive: 44.7 µM [inhibitor, partial curve, poor fit] | – | –
20 | Cc1ccc(CC(=O)N2CCCC(c3noc(COc4ccccc4)n3)C2)cc1 (stereo not drawn) | inconclusive: 50.1 µM [inhibitor, partial curve, poor fit] | – | –
21 | Cc1noc(C)c1-c1cc2c(cc(C)n2C)c(-c2cccc(CO)c2)n1 | active: 44.7 µM | – | –

Row | SMILES | Potency | activity change, negative = cytotoxicity | outcome
22 | O=C(NCc1ccccc1Cl)c1ccc2nnc(Cc3ccc(Cl)cc3)n2c1 | inconclusive: 50.1 µM [inhibitor, partial curve, poor fit] | – | –
23 | CN(CCc1ccccc1)Cc1cnc(S(C)(=O)=O)n1Cc1ccccc1F | inconclusive: 50.1 µM [inhibitor, partial curve, poor fit] | – | –
24 | CCN(C)C(=O)CC1=CSC2=NC(C)=C(C(=O)OC(C)(C)C)C(c3ccc(Cl)cc3)N12 (stereo not drawn) | inconclusive: 50.1 µM [inhibitor, partial curve, poor fit] | – | –
25 | CC[C@H]1CN(S(=O)(=O)c2c(C)noc2C)CC[C@H]1CC(=O)N1CCOCC1 | – | inactive: -36.1% [at 174 µM] | –
26 | O=C(Cc1c[nH]c2ncc(-c3ccccc3)cc12)NCCc1ccccc1 | inconclusive: 8.91 µM [inhibitor, full curve] | – | –
27 | COCC(=O)N1C[C@@H]2C[C@H]1C(=O)N(CC1CC1)c1ccccc1O2 | – | – | inactive [at 138 µM]
28 | CCN1c2cc(C(=O)NCc3cccc(F)c3)ccc2C(=O)N2CCCCCC21 (stereo not drawn) | – | inactive: -29.3% | –
29 | COc1ccc(CC(=O)Nc2ccc([C@@H](O)[C@H]3COCC(=O)N3CC3CCCCC3)cc2)cc1 | inconclusive: 89.1 µM [inhibitor, single point] | – | –
30 | COc1ccc(-c2cc(N3CCC(NC(=O)c4cc(OC)c(OC)c(OC)c4)C3)n[nH]2)cc1 (stereo not drawn) | – | inactive: -19.4% | –
31 | CNC(=O)c1cc(-c2ccccc2)cc2c1OCCN2Cc1cccnc1 | inconclusive: 79.4 µM [inhibitor, partial curve, poor fit] | – | –
32 | COC(=O)[C@@H]1Cc2c([nH]c3ccccc23)[C@@H]2C[C@@H](NCCNC(C)=O)C[C@@H](c3ccc(F)c(F)c3)N12 | active: 31.6 µM | – | –
33 | Cc1cc(C(F)(F)F)nn1CCNC(=O)[C@H]1CCC[C@H](O)C1 | – | inactive: -0.952% | –
34 | COc1ccc(C(=O)N2CCC3(CC2)NC(=O)N(c2cccc(F)c2)N3)cc1 | inconclusive: 35.5 µM [inhibitor, partial curve, poor fit] | – | –
35 | COc1ccccc1-c1nnc2ccc(C(=O)NC3CCCCC3)cn12 | – | inactive: -12.6% | –
36 | CC(C)CNC(=O)c1ccc2nnc(-c3cccnc3)n2c1 | – | inactive: -9.2% [at 138 µM] | –
37 | Cc1nn(C)c2nc(NCCC(=O)N3CCC(C)CC3)sc12 | inconclusive: 79.4 µM [inhibitor, partial curve, poor fit] | – | –
38 | COc1ccc(Cn2c(=O)c(C(=O)NCc3cccc(C(F)(F)F)c3)nc3cccnc32)cc1 | inconclusive: 50.1 µM [inhibitor, partial curve, poor fit] | – | –
39 | O=S(=O)(c1ccccc1)N1CC(n2cnnc2-c2ccccc2)C1 | – | inactive: -17.5% | –
40 | Cn1ncc2c(C(=O)NCc3ccc(F)cc3)cc(-c3cccnc3)nc21 | inconclusive: 39.8 µM [inhibitor, partial curve] | – | –
41 | CC1CCN(C(=O)c2ccccc2OCC2CCCN(C(=O)C3CC3)C2)CC1 (stereo not drawn) | inconclusive: 50.1 µM [inhibitor, partial curve, poor fit] | – | –
42 | Cc1cc(CNC(=O)[C@@H]2CCC[C@@H](NCc3cccc(Cl)c3)CN(C)C(=O)C2)no1 | – | inactive: 3.44% [at 174 µM] | –

Row | SMILES | Potency | activity change, negative = cytotoxicity | outcome
43 | COc1ccccc1CCC(=O)N1CCC[C@H]1c1nc(-c2ccc(OC)c(OC)c2)no1 | inconclusive: 50.1 µM [inhibitor, single point] | – | –
44 | COc1ccccc1N1CCN(C(=O)CN2C(=O)NC(c3ccc(Cl)cc3)C3=C2COC3=O)CC1 (stereo not drawn) | inconclusive: 44.7 µM [inhibitor, partial curve, poor fit] | – | –
45 | CCn1ccc(C(=O)NC2CCN(c3cc(-c4ccccc4)[nH]n3)CC2)n1 | inconclusive: 35.5 µM [inhibitor, partial curve, poor fit] | – | –
46 | CSc1cccc(NC(=O)c2ccc3c(c2)N(C)C2CCCCN2C3=O)c1 (stereo not drawn) | inconclusive: 44.7 µM [inhibitor, partial curve, poor fit] | – | –
47 | COc1ccc(Cl)cc1C(=O)N1CCC(c2n[nH]c(=O)n2-c2ccc(C)cc2)CC1 | inconclusive: 39.8 µM [inhibitor, partial curve] | – | –
48 | Cc1nn(-c2ccc(F)cc2)c(Oc2ccc(F)cc2F)c1CCC(=O)NCC1CC1 | inconclusive: 44.7 µM [inhibitor, partial curve, poor fit] | – | –
49 | CNC(=O)CCn1ncc2cc(OCc3ccccc3-c3cccc(NC(C)=O)c3)ccc21 | inconclusive: 50.1 µM [inhibitor, partial curve, poor fit] | – | –
50 | COc1cccc(-c2cc(C3CCN(C(=O)Nc4ccc5c(c4)OCCO5)CC3)[nH]n2)c1 | active: 39.8 µM | – | –
51 | COc1ccc(CC(=O)NC2CCN(C(=O)c3ccc(-c4ncccc4C#N)cc3)CC2)cc1 | inconclusive: 50.1 µM [inhibitor, partial curve, poor fit] | – | –
52 | COc1ccc(-c2noc([C@@H]3CCCN3C(=O)Cc3ccc(F)cc3)n2)cc1OC | inconclusive: 50.1 µM [inhibitor, partial curve, poor fit] | – | –
53 | O=C(O)CCn1ncc2cc(OC3CCN(C(=O)Oc4ccccc4)CC3)ccc21 | inconclusive: 10 µM [inhibitor, full curve, poor fit] | – | –
54 | Cc1nn(-c2cccc(Br)c2)c(C)c1[C@@H]1C=C[C@@H](NCc2cccc(C#N)c2)C1 | inconclusive: 44.7 µM [inhibitor, partial curve, poor fit] | – | –
55 | Cc1ccc(C2Cn3nnc(C(=O)N4CCC(C(=O)NC(C)c5ccc(F)cc5)CC4)c3CO2)cc1 (stereo not drawn) | inconclusive: 70.8 µM [inhibitor, partial curve, poor fit] | – | –
56 | COc1cccc([S+](=O)([O-])N2CCC(N3C(=O)c4c(c(C)nn4-c4ccccc4)C3C)C2)c1 (stereo not drawn) | inconclusive: 10 µM [inhibitor, partial curve, poor fit] | – | –
57 | O=C(Nc1ccccc1)N1CCOC(CN(C(=O)c2ccco2)C2CCCC2)C1 (stereo not drawn) | – | inactive: -17.5% | –
58 | COc1ccc(C(=O)N2CCC(c3noc(COc4ccc(C)cc4)n3)CC2)cn1 | inconclusive: 50.1 µM [inhibitor, partial curve, poor fit] | – | –
59 | COc1ccccc1-n1c(=O)c(C(=O)N2CCN(C(=O)c3ccc(C)cc3)CC2)nc2cccnc21 | – | inactive: -3.33% | –
60 | COc1ccc(-c2cnc3[nH]cc(CC(=O)NC4CCC(O)CC4)c3c2)cc1 (stereo not drawn) | active: 25.1 µM | – | –
61 | O=C(Nc1ccccc1)c1cnc2n1CCN(Cc1ccc3c(c1)CCO3)CC2 | inconclusive: 89.1 µM [inhibitor, partial curve] | – | –
62 | O=C(c1ccccc1)N1CCc2sc(C(=O)N3CCN(c4ccccn4)CC3)cc2C1 | – | inactive: -17.6% | –
63 | O=C(Cc1ccc(F)cc1)NC1CCN(c2cc(C(F)(F)F)ncn2)CC1 | inconclusive: 25.1 µM [inhibitor, partial curve, poor fit] | – | –
